Assay results: PubChem BioAssay (NCATS)
The inconclusive results got no clear call from the source; some entries with a clear call stand among them for comparison. For some assays here: Potencies beside an inconclusive call are fits to weak or partial responses and may not hold up. The source made the active and inactive calls. Calls follow the shape of the dose curve; as a rule, active = well fitted curve in the direction sought with a large enough effect; inconclusive = small, poorly fitted or top-dose-only effect, or another doubt; inactive = no such curve, though single readings can be large; an effect the other way counts as inactive or inconclusive.

Key:
[1] = P-glycoprotein substrates identified in KB-8-5-11 adenocarcinoma cell line, qHTS therapeutic library screen (AID 1346987); conditions: KB-8-5-11 (P-gp overexpressing) viability, CellTiter-Glo, 72 h; series mostly up to 44.5 µM; also: potency is read from the fitted curve at half-maximal effect; nearly all actives have a fitted effect of over 65% in size
Outline: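 KB-8-5-11, a colchicine-selected P-gp-overexpressing KB-3-1 subline, was grown without colchicine for the assay. Cells were seeded at 500 cells/well, dosed in concentration-response and incubated 72 h at 37 degree C, 5% CO2. Viability was read by CellTiter-Glo luminescence.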

[2] = Primary qHTS for inhibitors of nuclear receptor binding SET domain protein 2 (NSD2) in an RCH-ACV wild type WT cells (2C) (AID 1645877); conditions: RCH-ACV NSD2 WT (2C) viability, CellTiter-Glo, 72 h; activity change, negative = cell killing: at 44.9 µM (top of the series) unless noted; series mostly up to 44.9 µM; also: potency is read from the fitted curve at half-maximal effect; nearly all actives have a fitted effect of over 70% in size
CRL-7250 = normal cell line; assay: Cytotoxic Profiling of Annotated Libraries Using Quantitative High-Throughput Screening (AID 1296008); conditions: Five cell lines viability, CellTiter-Glo ATP luminescence, 48-72 h; max response: stronger effect = lower value; also: nearly all actives have a fitted effect of over 60% in size; also: potency is read from the fitted curve at half-maximal effect; as to max response: % is scaled to controls: 0 for no effect and ±100 for the full control effect
Outline: (§1)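 Cytotoxicity was measured as CellTiter-Glo ATP luminescence, read after 10 min at room temperature. Compound treatment of the cells lasted 48 or 72 hr at 37 degrees Celsius in a qHTS format.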

KB-3-1 = assay: as above; conditions: Five cell lines viability, CellTiter-Glo ATP luminescence, 48-72 h; max response: stronger effect = lower value
Outline: as §1

CAOV3 = assay: Primary qHTS to identify gynecologic anti-cancer compounds using libraries of approved drugs and bioactive compounds (AID 1345084); conditions: Gynecologic cancer cell panel viability, ATPlite luminescence, 48 h; activity change, negative = cytotoxicity: at 57.5 µM (top of the series); also: nearly all actives have a fitted effect of over 55% in size; also: potency is read from the fitted curve at half-maximal effect; as to activity change, negative = cytotoxicity: % is scaled to controls: 0 for no effect and ±100 for the full control effect
Outline: (§2)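 Five-concentration response, 48 h; readout is ATP-driven luciferase luminescence.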

CASKI = assay: as above; conditions: Gynecologic cancer cell panel viability, ATPlite luminescence, 48 h; series mostly up to 57.5 µM
Outline: as §2

Es-2 = assay: as above; conditions: Gynecologic cancer cell panel viability, ATPlite luminescence, 48 h; series mostly up to 57.5 µM
Outline: as §2

Hek293T = assay: as above; conditions: Gynecologic cancer cell panel viability, ATPlite luminescence, 48 h, control line for the selectivity index; activity change, negative = cytotoxicity: at 57.5 µM (top of the series) unless noted
Outline: as §2

OV90 = assay: as above; conditions: Gynecologic cancer cell panel viability, ATPlite luminescence, 48 h; series mostly up to 57.5 µM
Outline: as §2

PA-1 = assay: as above; conditions: Gynecologic cancer cell panel viability, ATPlite luminescence, 48 h; series mostly up to 57.5 µM
Outline: as §2

SKOV3 = assay: as above; conditions: Gynecologic cancer cell panel viability, ATPlite luminescence, 48 h; series mostly up to 57.5 µM
Outline: as §2

Tov-21-G = assay: as above; conditions: Gynecologic cancer cell panel viability, ATPlite luminescence, 48 h; activity change, negative = cytotoxicity: at 57.5 µM (top of the series) unless noted
Outline: as §2

[3] = tested on: Zika virus NS2B-NS3 protease (linked construct); assay: Primary screen NINDS Rhodamine qHTS for Zika virus inhibitors (AID 1347160); conditions: purified NS2B-NS3 protease, Rhodamine110 substrate fluorescence; activity change, negative = inhibition: at 57.1 µM (top of the series) unless noted; series mostly up to 57.1 µM; also: % is scaled to controls: 0 for no effect and ±100 for the full control effect; nearly all actives have a fitted effect of over 55% in size
Outline: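 Percent inhibition, normalized to uninhibited and enzyme-free controls, is fitted to a 4-parameter Hill equation. Fluorescence change comes from a 15-min cleavage of 1.5 microM bis-peptide Rhodamine110 substrate by 25 nM linked NS2B-NS3 at room temperature.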

C33A = assay: Primary qHTS to identify gynecologic anti-cancer compounds using libraries of approved drugs and bioactive compounds (AID 1345084); conditions: Gynecologic cancer cell panel viability, ATPlite luminescence, 48 h; series mostly up to 57.5 µM; also: nearly all actives have a fitted effect of over 55% in size; also: potency is read from the fitted curve at half-maximal effect; as to activity change, negative = cytotoxicity: % is scaled to controls: 0 for no effect and ±100 for the full control effect
Outline: as §2

JEG-3 = assay: as above; conditions: Gynecologic cancer cell panel viability, ATPlite luminescence, 48 h; series mostly up to 57.5 µM
Outline: as §2

Tov112D = assay: as above; conditions: Gynecologic cancer cell panel viability, ATPlite luminescence, 48 h; series mostly up to 57.5 µM
Outline: as §2

[4] = Primary qHTS for inhibitors of nuclear receptor binding SET domain protein 2 (NSD2) in an isogenic RCH-ACV NSD2 p.E1099K mutant (9B) (AID 1645876); conditions: RCH-ACV (leukaemia line) NSD2 E1099K (9B) viability, CellTiter-Glo, 72 h; series mostly up to 44.9 µM; also: nearly all actives have a fitted effect of over 70% in size; also: potency is read from the fitted curve at half-maximal effect
[5] = tested on: Zika virus NS2B-NS3 protease (unlinked complex); assay: Primary screen GU Rhodamine qHTS for Zika virus inhibitors: Unlinked NS2B-NS3 protease assay (AID 1347159); conditions: Recombinant ZIKV NS2B-NS3 protease, Rhodamine110 substrate fluorescence; series mostly up to 107 µM; also: nearly all actives have a fitted effect of over 60% in size; also: potency is read from the fitted curve at half-maximal effect
Outline: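 Compounds, tested up to 114 microM, were incubated for 15 minutes with 25 nM unlinked NS2B-NS3 protease at pH 8.0. Cleavage of 1.5 microM Rhodamine110 substrate was then followed by fluorescence for 15 minutes.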

NIH3T3 = assay: Cytotoxic Profiling of Annotated Libraries Using Quantitative High-Throughput Screening (AID 1296008); conditions: Five cell lines viability, CellTiter-Glo ATP luminescence, 48-72 h; max response: stronger effect = lower value; also: nearly all actives have a fitted effect of over 60% in size; also: potency is read from the fitted curve at half-maximal effect; as to max response: % is scaled to controls: 0 for no effect and ±100 for the full control effect
Outline: as §1

[6] = Primary fluorescence-based thiol-reactive (MSTI) qHTS assay for identification of artifact compounds. (AID 1845221); conditions: MSTI thiol-reactivity probe, 1 h; series mostly up to 53.8 µM;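 also: potency is read from the fitted curve at half-maximal effect; thiol-reactive compounds lower the probe fluorescence signal; nearly all actives have a fitted effect of over 65% in size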
Outline: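 In PBS pH 7.4 with 2% DMSO, each compound met 4 uM MSTI for one hour at ambient temperature, shielded from light, before fluorescence detection.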
Tags tell the direction and shape of the fitted curve.

CN(C)C(=O)NC1(c2ccccc2)CCN(CCC[C@]2(c3ccc(Cl)c(Cl)c3)CCCN(C(=O)c3ccccc3)C2)CC1
inconclusive: Potency (CRL-7250) 25.9 µM [inhibitor, single point] | Potency (KB-3-1) 29.1 µM [inhibitor, single point] | Potency (CASKI) 15.8 µM [cytotoxic, partial curve, poor fit] | Potency (Es-2) 31.6 µM [cytotoxic, partial curve, poor fit] | Potency (Hek293T) 31.6 µM [cytotoxic, single point] | Potency (OV90) 39.8 µM [cytotoxic, single point] | Potency (PA-1) 28.2 µM [cytotoxic, single point] | Potency (SKOV3) 39.8 µM [cytotoxic, single point] | Potency (Tov-21-G) 39.8 µM [cytotoxic, single point]
active: Potency [1] 18.4 µM | Potency [2] 2.9 µM | Potency (CAOV3) 20 µM

COC(=O)/C=C/C(=O)N(O)CCCCNCc1ccc(COC(=O)Nc2cccc3ccccc23)cc1
inconclusive: Potency [1] 23.1 µM [inhibitor, single point] | Potency [2] 7.42 µM [inhibitor, full curve, poor fit] | Potency (CRL-7250) 29.1 µM [inhibitor, single point] | Potency (KB-3-1) 18.4 µM [inhibitor, single point] | Potency (C33A) 39.8 µM [cytotoxic, single point] | Potency (CAOV3) 39.8 µM [cytotoxic, single point] | Potency (CASKI) 28.2 µM [cytotoxic, single point] | Potency (Es-2) 39.8 µM [cytotoxic, single point] | Potency (Hek293T) 20 µM [cytotoxic, single point] | Potency (PA-1) 35.5 µM [cytotoxic, single point] | Potency (SKOV3) 39.8 µM [cytotoxic, single point]
inactive: Potency [3] | Potency (Tov-21-G)

CN(C)CCN(Cc1ccc(-c2ccc(CNCCc3ccccc3)cc2)cc1)C(=O)CCC1CCCC1
active: Potency [1] 4.11 µM | Potency [2] 2.3 µM | Potency (KB-3-1) 4.61 µM | Potency (CAOV3) 5.62 µM | Potency (JEG-3) 25.1 µM | Potency (OV90) 22.4 µM | Potency (SKOV3) 15.8 µM
inactive: Potency [3]
inconclusive: Potency (CRL-7250) 29.1 µM [inhibitor, single point] | Potency (C33A) 25.1 µM [cytotoxic, single point] | Potency (CASKI) 39.8 µM [cytotoxic, single point] | Potency (Es-2) 31.6 µM [cytotoxic, single point] | Potency (Hek293T) 28.2 µM [cytotoxic, single point] | Potency (PA-1) 39.8 µM [cytotoxic, single point] | Potency (Tov-21-G) 31.6 µM [cytotoxic, single point] | Potency (Tov112D) 39.8 µM [cytotoxic, single point]

CCCOC(=O)c1ccccc1
inactive: Potency [4] | max response (CRL-7250) -5.05% | max response (KB-3-1) -10.8% | Potency (CASKI)

C=C1C(=O)OC2CC(C)=C(C(C)CCCOC(C)=O)C(OC(=O)CC(C)CC)C12 (stereo not given)
inactive: Potency (CAOV3)
inconclusive: Potency [1] 14.2 µM [inhibitor, single point] | Potency (CRL-7250) 15.9 µM [inhibitor, single point] | Potency (KB-3-1) 12.6 µM [inhibitor, single point] | Potency (Es-2) 17.8 µM [cytotoxic, single point] | Potency (Hek293T) 11.2 µM [cytotoxic, single point] | Potency (JEG-3) 17.8 µM [cytotoxic, single point] | Potency (PA-1) 10 µM [cytotoxic, single point] | Potency (SKOV3) 10 µM [cytotoxic, single point] | Potency (Tov-21-G) 8.91 µM [cytotoxic, single point]

C=C1C(=O)O[C@@H]2C(OC(=O)/C(C)=C\C)/C(C)=C\C(=O)/C=C(\C)C[C@H](O)[C@@H]12 (stereo not given in full)
inconclusive: Potency [1] 11.4 µM [inhibitor, partial curve, poor fit] | Potency (KB-3-1) 20.2 µM [inhibitor, single point] | Potency (C33A) 25.1 µM [cytotoxic, single point] | Potency (CAOV3) 22.4 µM [cytotoxic, single point] | Potency (CASKI) 28.2 µM [cytotoxic, single point] | Potency (Es-2) 20 µM [cytotoxic, single point] | Potency (JEG-3) 20 µM [cytotoxic, single point] | Potency (Tov112D) 10 µM [cytotoxic, partial curve]
active: Potency (CRL-7250) 10.1 µM | Potency (Hek293T) 11.2 µM | Potency (Tov-21-G) 10 µM

Cc1cc2c(c(=O)o1)C=C1CC[C@H]([C@H](C)Cn3cnc(=N)c4[nH]cnc43)C[C@@H]1O2
inconclusive: Potency (CRL-7250) 2.91 µM [inhibitor, full curve] | Potency (KB-3-1) 5.8 µM [inhibitor, partial curve] | Potency (C33A) 39.8 µM [rising, single point]

CCOC(=O)[C@H](CCc1ccccc1)N[C@@H](C)C(=O)N1[C@H](C(=O)O)C[C@@H]2CCC[C@@H]21
inactive: Potency [4] | max response (KB-3-1) 3.06% | Potency (Es-2)
inconclusive: Potency (CRL-7250) 3.76 µM [inhibitor, partial curve, poor fit]

O=C(NC1(c2ccccc2)CC1)c1c(CN2CCC(N3CCCCC3)CC2)c(-c2cccc(C(F)(F)F)c2)nc2cc(Br)ccc12
active: Potency (OV90) 17.8 µM
inconclusive: Potency (CRL-7250) 23.1 µM [inhibitor, single point] | Potency (KB-3-1) 29.1 µM [inhibitor, single point] | Potency (CAOV3) 3.16 µM [cytotoxic, partial curve, poor fit] | Potency (Hek293T) 39.8 µM [cytotoxic, single point] | Potency (PA-1) 39.8 µM [cytotoxic, single point]

O=C(C=CC#Cc1cccc(NS(=O)(=O)c2ccccc2)c1)NO
active: Potency [1] 4.69 µM | Potency (CRL-7250) 13.2 µM | Potency (KB-3-1) 5.26 µM

CCNc1nc2c(ncn2[C@H]2C[C@H](O)[C@@H](CO)O2)c(=O)[nH]1
inactive: max response (CRL-7250) 0.139% | outcome (KB-3-1) | Potency (CAOV3)

C/C(=N\N=C(N)N)c1cc(NC(=O)CCCCCCCCC(=O)Nc2cc(/C(C)=N/N=C(N)N)cc(/C(C)=N/N=C(N)N)c2)cc(/C(C)=N/N=C(N)N)c1
inconclusive: Potency [1] 13 µM [inhibitor, partial curve] | Potency [5] 10 µM [inhibitor, partial curve, poor fit] | Potency (CRL-7250) 29.1 µM [inhibitor, single point] | Potency (KB-3-1) 20.6 µM [inhibitor, single point] | Potency (C33A) 8.91 µM [cytotoxic, partial curve] | Potency (CAOV3) 35.5 µM [cytotoxic, single point] | Potency (Es-2) 39.8 µM [cytotoxic, single point] | Potency (OV90) 22.4 µM [cytotoxic, single point] | Potency (PA-1) 28.2 µM [cytotoxic, single point] | Potency (SKOV3) 31.6 µM [cytotoxic, single point] | Potency (Tov-21-G) 35.5 µM [cytotoxic, single point]

CCOC(=O)[C@H](CCc1ccccc1)N[C@@H](C)C(=O)N1[C@@H](C(=O)O)C[C@H]2CCC[C@@H]21
active: Potency [1] 10.5 µM
inconclusive: Potency (CRL-7250) 37.2 µM [inhibitor, single point] | Potency (KB-3-1) 26.4 µM [inhibitor, single point] | Potency (NIH3T3) 33.2 µM [inhibitor, single point]

COc1ccc(CN2CCN(C(=O)CCNC(=O)c3ccc(C(C)(C)C)cc3)CC2)cc1
inconclusive: Potency [4] 11.5 µM [inhibitor, partial curve] | Potency [2] 14.5 µM [inhibitor, partial curve] | Potency (CRL-7250) 20.6 µM [inhibitor, partial curve, poor fit] | Potency (KB-3-1) 7.31 µM [inhibitor, partial curve] | Potency (C33A) 8.91 µM [cytotoxic, full curve, poor fit] | Potency (Hek293T) 10 µM [cytotoxic, partial curve] | Potency (PA-1) 39.8 µM [cytotoxic, single point]
inactive: Potency [5]

NCc1ccc(Nc2ncc(F)c(Nc3ccccc3)n2)cc1
active: Potency (KB-3-1) 8.2 µM | Potency (PA-1) 12.6 µM
inconclusive: Potency (CRL-7250) 18.4 µM [inhibitor, single point] | Potency (CAOV3) 17.8 µM [cytotoxic, partial curve, poor fit] | Potency (Es-2) 39.8 µM [cytotoxic, partial curve, poor fit] | Potency (SKOV3) 10 µM [cytotoxic, partial curve, poor fit] | Potency (Tov-21-G) 15.8 µM [cytotoxic, partial curve, poor fit]

CC(C)S(=O)(=O)NC[C@@H]1CC(c2ccc(N3CCCC3)c(F)c2)=NO1
inconclusive: Potency [1] 11.6 µM [inhibitor, partial curve] | Potency [4] 16.3 µM [inhibitor, partial curve] | Potency [2] 12.9 µM [inhibitor, partial curve] | Potency [6] 2.12 µM [inhibitor, full curve] | Potency (CRL-7250) 29.1 µM [inhibitor, single point] | Potency (KB-3-1) 16.4 µM [inhibitor, single point] | Potency (C33A) 39.8 µM [cytotoxic, single point] | Potency (Hek293T) 39.8 µM [cytotoxic, single point] | Potency (OV90) 28.2 µM [cytotoxic, single point] | Potency (SKOV3) 31.6 µM [cytotoxic, single point]
